Test results from a collection of fitness landscapes (doi:10.1016/j.celrep.2020.107928).
Over roughly 81,000 sequences, “one-hybrid fitness for binding NBS DNA” has its median near -0.1; the highest 2% begin near 0.36. Some of the results follow.

B1: Caulobacter ParB omega fusion; a variant is named by its letters at X, in order, B8GW30 (parent)
chain: MESVVVGEPGMSEGRRGLGRGLSALLGEVDAAPAQAPGEQLGGSREAPIEILQRNPDQPRRTFREEDLEDLSNSIREKGVLQPILVRPSPDTAGEYQIVAGERAWRAAQRAGLKTVPIMVRELDDLAVLEIGIIENVQRADLNVLEEALSYKVLMEKFERTQENIAQTIGKSXSHVANXMRLLXLPDEVQSYLVSGELTAXHARAIAAAADPVALAKQIIEGGLSVRETEALARKAPNLSAGKSKGGRPPRVKDTDTQALESDLSSVLGLDVSIDHRGSTGTLTITYATLEQLDDLCNRLTRGI

Variants of: B1
Assay: one-hybrid fitness for binding NBS DNA (the Noc-binding site; scaled: cognate 1, non-cognate 0); higher = stronger binding
Conditions: with NBS DNA site
In short: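 On M9-minus-histidine containing 0.1 mM IPTG and 5 mM 3-AT, E. coli USO cells with a HIS3 reporter, site 19 bp from the promoter, grew 48 hours at 37°C to select Caulobacter ParB libraries randomised at four specificity codons. Plasmids from before and after were Illumina-sequenced, with three replicate libraries pooled and variants under 10 reads left out. Fitness is the log change in variant-to-wild-type read ratio, rescaled against cognate and non-cognate.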

Row | Variant | one-hybrid fitness for binding NBS DNA
1 | RLFD | ≤ 0.2
2 | LWKG | ≤ 0.2
3 | TTFR | ≤ 0.2
4 | ISCL | ≤ 0.2
5 | KLFR | ≤ 0.2
6 | CTQS | ≤ 0.2
7 | EKQR | ≤ 0.2
8 | GSDF | ≤ 0.2
9 | TISW | ≤ 0.2
10 | NDNA | ≤ 0.2
11 | MEPR | ≤ 0.2
12 | ISTR | ≤ 0.2
13 | RWAE | ≤ 0.2
14 | AIHS | ≤ 0.2
15 | SQSV | ≤ 0.2
16 | RKLK | ≤ 0.2
17 | AFIM | ≤ 0.2
18 | MPSK | ≤ 0.2
19 | MSLR | ≤ 0.2
20 | RNLT | ≤ 0.2
21 | LGDI | ≤ 0.2
22 | QFCA | ≤ 0.2
23 | ENVC | ≤ 0.2
24 | GDMV | ≤ 0.2
25 | ACHA | ≤ 0.2
26 | CAPL | ≤ 0.2

Row | Variant | one-hybrid fitness for binding NBS DNA
27 | ILRG | ≤ 0.2
28 | NIVN | ≤ 0.2
29 | IETV | ≤ 0.2
30 | TMMG | ≤ 0.2
31 | WYER | ≤ 0.2
32 | PKHH | ≤ 0.2
33 | LTWM | ≤ 0.2
34 | GKRC | ≤ 0.2
35 | RPIK | ≤ 0.2
36 | SYNN | ≤ 0.2
37 | ANDT | ≤ 0.2
38 | TNYG | ≤ 0.2
39 | TRRC | ≤ 0.2
40 | MARC | ≤ 0.2
41 | NLDK | ≤ 0.2
42 | DHSS | ≤ 0.2
43 | WCTR | ≤ 0.2
44 | PAQP | ≤ 0.2
45 | WSDL | ≤ 0.2
46 | QQEC | ≤ 0.2
47 | DSQR | ≤ 0.2
48 | DPVI | ≤ 0.2
49 | DADG | ≤ 0.2
50 | KRCC | ≤ 0.2
51 | TYPT | ≤ 0.2
52 | TTKY | ≤ 0.2

Row | Variant | one-hybrid fitness for binding NBS DNA
53 | SVQW | ≤ 0.2
54 | FNEI | ≤ 0.2
55 | NYTG | ≤ 0.2
56 | YWSC | ≤ 0.2
57 | VPCR | ≤ 0.2
58 | DIVG | ≤ 0.2
59 | RLFP | ≤ 0.2
60 | RCWT | 0.418
61 | HGYG | ≤ 0.2
62 | AAEV | ≤ 0.2
63 | KILA | ≤ 0.2
64 | QTWD | ≤ 0.2
65 | ADPL | ≤ 0.2
66 | DGWS | ≤ 0.2
67 | PLGT | ≤ 0.2
68 | LTAF | ≤ 0.2
69 | CHTY | ≤ 0.2
70 | FPTM | ≤ 0.2
71 | IPAF | ≤ 0.2
72 | ETRH | ≤ 0.2
73 | DNRM | ≤ 0.2
74 | QPLN | ≤ 0.2
75 | AQRR | 0.217
76 | NKAY | ≤ 0.2
77 | LPNP | ≤ 0.2
78 | EIKV | ≤ 0.2

Row | Variant | one-hybrid fitness for binding NBS DNA
79 | RHIN | ≤ 0.2
80 | ARPY | ≤ 0.2
81 | RFHW | ≤ 0.2
82 | RELC | ≤ 0.2
83 | RRWA | 0.546
84 | VSYS | ≤ 0.2
85 | YQRC | ≤ 0.2
86 | DYIT | ≤ 0.2
87 | LLKM | ≤ 0.2
88 | SMER | ≤ 0.2
89 | NKDD | ≤ 0.2
90 | EADR | ≤ 0.2
91 | TGAF | ≤ 0.2
92 | HLAA | ≤ 0.2
93 | CSQL | ≤ 0.2
94 | SISS | ≤ 0.2
95 | GPQL | ≤ 0.2
96 | IGQT | ≤ 0.2
97 | YQMF | ≤ 0.2
98 | SSYS | ≤ 0.2
99 | KTIT | ≤ 0.2
100 | AGPD | ≤ 0.2
101 | EPWV | ≤ 0.2
102 | RTNS | 0.534
103 | PLFR | ≤ 0.2
104 | DSRN | ≤ 0.2

Row | Variant | one-hybrid fitness for binding NBS DNA
105 | PSPC | ≤ 0.2
106 | THGE | ≤ 0.2
107 | IWPT | ≤ 0.2
108 | MLQH | ≤ 0.2
109 | PCSR | ≤ 0.2
110 | MLLS | ≤ 0.2
111 | RSHQ | ≤ 0.2
112 | CRNC | ≤ 0.2
113 | TMGT | ≤ 0.2
114 | KKSG | ≤ 0.2
115 | SERC | ≤ 0.2
116 | YIDG | ≤ 0.2
117 | VMDI | ≤ 0.2
118 | QVMW | ≤ 0.2
119 | HTLK | ≤ 0.2
120 | YTWC | ≤ 0.2
121 | VHTT | ≤ 0.2
122 | QSIL | ≤ 0.2
123 | RASG | ≤ 0.2
124 | SHGW | ≤ 0.2
125 | YSPG | ≤ 0.2
126 | PRNN | ≤ 0.2
127 | RVQI | ≤ 0.2
128 | ALPR | ≤ 0.2
129 | QMVQ | 0.283
130 | VDSW | ≤ 0.2

Row | Variant | one-hybrid fitness for binding NBS DNA
131 | QCDS | 0.28
132 | KQDS | ≤ 0.2
133 | QEQF | ≤ 0.2
134 | RCWF | ≤ 0.2
135 | YRRA | ≤ 0.2
136 | ILNV | ≤ 0.2
137 | QRII | ≤ 0.2
138 | LTLF | ≤ 0.2
139 | EDSS | ≤ 0.2
140 | CLKA | ≤ 0.2
141 | RIEK | ≤ 0.2
142 | WHMG | ≤ 0.2
143 | ATKA | ≤ 0.2
144 | LPPT | ≤ 0.2
145 | DLCL | ≤ 0.2
146 | TNHK | ≤ 0.2
147 | RAAH | ≤ 0.2
148 | QSHP | ≤ 0.2
149 | KYES | ≤ 0.2
150 | LVSM | ≤ 0.2
151 | LCVT | ≤ 0.2
152 | HDSG | ≤ 0.2
153 | YDDS | ≤ 0.2
